According to the supplement of paper PMC8728848:
Some of the results follow.

How the values were obtained:
Experiment in all cases: glycan array binding signal (z-score within array); higher = stronger binding
Conditions in all cases: glycan notation: IUPAC condensed, linker removed
[1] = biological target: Fuc(a1-2)Gal(b1-4)[Fuc(a1-3)]GlcNAc(b1-3)GalNAc
In short: (§1)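 The binding signal is a Z-score computed within each array and averaged over linkers. Arrays of the same protein sequence at different concentrations or buffers were also averaged together. Data originate from 3228 arrays in the Consortium for Functional Glycomics database, kept only where the protein sequence was available.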

[2] = biological target: Fuc(a1-2)Gal(b1-4)[Fuc(a1-3)]GlcNAc(b1-3)[Neu5Ac(a2-6)Gal(b1-4)GlcNAc(b1-6)]Gal(b1-4)Glc
In short: as §1

[3] = biological target: Fuc(a1-2)Gal3S(b1-4)GlcNAc
In short: as §1

[4] = biological target: Fuc(a1-2)Gal6S(b1-3)GlcNAc
In short: as §1

[5] = biological target: Fuc(a1-2)Gal6S(b1-3)GlcNAc6S
In short: as §1

Fuc(a1-2)Gal6S(b1-4)Glc = biological target: Fuc(a1-2)Gal6S(b1-4)Glc
In short: as §1

[6] = biological target: Fuc(a1-2)Gal6S(b1-4)Glc6S
In short: as §1

[7] = biological target: Fuc(a1-2)Gal6S(b1-4)GlcNAc
In short: as §1

Fuc(a1-2)GlcNAc = biological target: Fuc(a1-2)GlcNAc
In short: as §1

Fuc(a1-2)[Gal(a1-3)]Gal = biological target: Fuc(a1-2)[Gal(a1-3)]Gal
In short: as §1

[8] = biological target: Fuc(a1-2)[Gal(a1-3)]Gal(b1-3)GalNAc
In short: as §1

[9] = biological target: Fuc(a1-2)[Gal(a1-3)]Gal(b1-3)GalNAc(b1-3)Gal(a1-4)Gal(b1-4)Glc
In short: as §1

[10] = biological target: Fuc(a1-2)[Gal(a1-3)]Gal(b1-3)GlcNAc
In short: as §1

[11] = biological target: Fuc(a1-2)[Gal(a1-3)]Gal(b1-3)GlcNAc(b1-2)Man(a1-3)[Fuc(a1-2)[Gal(a1-3)]Gal(b1-3)GlcNAc(b1-2)Man(a1-6)]Man(b1-4)GlcNAc(b1-4)GlcNAc
In short: as §1

[12] = biological target: Fuc(a1-2)[Gal(a1-3)]Gal(b1-3)GlcNAc(b1-2)Man(a1-3)[Fuc(a1-2)[Gal(a1-3)]Gal(b1-3)GlcNAc(b1-2)Man(a1-6)]Man(b1-4)GlcNAc(b1-4)[Fuc(a1-6)]GlcNAc
In short: as §1

[13] = biological target: Fuc(a1-2)[Gal(a1-3)]Gal(b1-3)GlcNAc(b1-3)GalNAc
In short: as §1

[14] = biological target: Fuc(a1-2)[Gal(a1-3)]Gal(b1-3)GlcNAc(b1-6)GalNAc
In short: as §1

[15] = biological target: Fuc(a1-2)[Gal(a1-3)]Gal(b1-4)Glc
In short: as §1

[16] = biological target: Fuc(a1-2)[Gal(a1-3)]Gal(b1-4)GlcNAc
In short: as §1

[17] = biological target: Fuc(a1-2)[Gal(a1-3)]Gal(b1-4)GlcNAc(b1-2)Man
In short: as §1

[18] = biological target: Fuc(a1-2)[Gal(a1-3)]Gal(b1-4)GlcNAc(b1-2)Man(a1-3)[Fuc(a1-2)[Gal(a1-3)]Gal(b1-4)GlcNAc(b1-2)Man(a1-6)]Man(b1-4)GlcNAc(b1-4)GlcNAc
In short: as §1

[19] = biological target: Fuc(a1-2)[Gal(a1-3)]Gal(b1-4)GlcNAc(b1-2)Man(a1-3)[Fuc(a1-2)[Gal(a1-3)]Gal(b1-4)GlcNAc(b1-2)Man(a1-6)]Man(b1-4)GlcNAc(b1-4)[Fuc(a1-6)]GlcNAc
In short: as §1

[20] = biological target: Fuc(a1-2)[Gal(a1-3)]Gal(b1-4)GlcNAc(b1-3)GalNAc
In short: as §1

[21] = biological target: Fuc(a1-2)[Gal(a1-3)]Gal(b1-4)GlcNAc(b1-6)GalNAc
In short: as §1

[22] = biological target: Fuc(a1-2)[Gal(a1-3)]Gal(b1-4)[Fuc(a1-3)]Glc
In short: as §1

[23] = biological target: Fuc(a1-2)[Gal(a1-3)]Gal(b1-4)[Fuc(a1-3)]GlcNAc
In short: as §1

[24] = biological target: Fuc(a1-2)[Gal(a1-3)]Gal(b1-4)[Fuc(a1-3)]GlcNAc(b1-3)GalNAc
In short: as §1

[25] = biological target: Fuc(a1-2)[Gal(a1-4)]Gal(b1-4)GalNAc
In short: as §1

[26] = biological target: Fuc(a1-2)[Gal(a1-4)]Gal(b1-4)GlcNAc
In short: as §1

[27] = biological target: Fuc(a1-2)[GalNAc(a1-3)]Gal
In short: as §1

[28] = biological target: Fuc(a1-2)[GalNAc(a1-3)]Gal(b1-3)GalNAc(a1-3)[Fuc(a1-2)]Gal(b1-4)GlcNAc
In short: as §1

[29] = biological target: Fuc(a1-2)[GalNAc(a1-3)]Gal(b1-3)GalNAc(b1-3)Gal(a1-4)Gal(b1-4)Glc
In short: as §1

[30] = biological target: Fuc(a1-2)[GalNAc(a1-3)]Gal(b1-3)GlcNAc
In short: as §1

[31] = biological target: Fuc(a1-2)[GalNAc(a1-3)]Gal(b1-3)GlcNAc(b1-2)Man(a1-3)[Fuc(a1-2)[GalNAc(a1-3)]Gal(b1-3)GlcNAc(b1-2)Man(a1-6)]Man(b1-4)GlcNAc(b1-4)GlcNAc
In short: as §1

[32] = biological target: Fuc(a1-2)[GalNAc(a1-3)]Gal(b1-3)GlcNAc(b1-2)Man(a1-3)[Fuc(a1-2)[GalNAc(a1-3)]Gal(b1-3)GlcNAc(b1-2)Man(a1-6)]Man(b1-4)GlcNAc(b1-4)[Fuc(a1-6)]GlcNAc
In short: as §1

[33] = biological target: Fuc(a1-2)[GalNAc(a1-3)]Gal(b1-3)GlcNAc(b1-3)GalNAc
In short: as §1

[34] = biological target: Fuc(a1-2)[GalNAc(a1-3)]Gal(b1-3)GlcNAc(b1-6)GalNAc
In short: as §1

[35] = biological target: Fuc(a1-2)[GalNAc(a1-3)]Gal(b1-4)Glc
In short: as §1

[36] = biological target: Fuc(a1-2)[GalNAc(a1-3)]Gal(b1-4)GlcNAc
In short: as §1

[37] = biological target: Fuc(a1-2)[GalNAc(a1-3)]Gal(b1-4)GlcNAc(b1-2)Man
In short: as §1

[38] = biological target: Fuc(a1-2)[GalNAc(a1-3)]Gal(b1-4)GlcNAc(b1-2)Man(a1-3)[Fuc(a1-2)[GalNAc(a1-3)]Gal(b1-4)GlcNAc(b1-2)Man(a1-6)]Man(b1-4)GlcNAc(b1-4)GlcNAc
In short: as §1

[39] = biological target: Fuc(a1-2)[GalNAc(a1-3)]Gal(b1-4)GlcNAc(b1-2)Man(a1-3)[Fuc(a1-2)[GalNAc(a1-3)]Gal(b1-4)GlcNAc(b1-2)Man(a1-6)]Man(b1-4)GlcNAc(b1-4)[Fuc(a1-6)]GlcNAc
In short: as §1

[40] = biological target: Fuc(a1-2)[GalNAc(a1-3)]Gal(b1-4)GlcNAc(b1-3)Gal(b1-4)GlcNAc
In short: as §1

[41] = biological target: Fuc(a1-2)[GalNAc(a1-3)]Gal(b1-4)GlcNAc(b1-3)Gal(b1-4)GlcNAc(b1-3)Gal(b1-4)GlcNAc
In short: as §1

[42] = biological target: Fuc(a1-2)[GalNAc(a1-3)]Gal(b1-4)GlcNAc(b1-3)GalNAc
In short: as §1

B1: UEA-I (Ulex europaeus), P22972 (protein)
chain: SDDLSFKFKNFSQNGKDLSFQGDASVIETGVLQLNKVGNNLPDETGGIARYIAPIHIWNCNTGEVASFITSFSFFMETSANPKAATDGLTFFLAPPDSPLRRAGGYFGLFEDTKDNDSSYQTVAVEFDTIGSPVNFDDPGFPHIGIDVNRVKSINAERWNKRYGLNNVANVEIIYEASSKTLTASLTYPSDQTSISVTSIVDLKEILPEWVSVGFSGGTYIGRQATHEVLNWYFTSNLINTNS
glycan array binding signal (z-score) [1]: 0.072 | glycan array binding signal (z-score) [2]: -0.226 | glycan array binding signal (z-score) [3]: 3.27 | glycan array binding signal (z-score) [4]: -0.194 | glycan array binding signal (z-score) [5]: -0.191 | glycan array binding signal (z-score) (Fuc(a1-2)Gal6S(b1-4)Glc): 4.67 | glycan array binding signal (z-score) [6]: 5.33 | glycan array binding signal (z-score) [7]: 2.5 | glycan array binding signal (z-score) (Fuc(a1-2)GlcNAc): 1.81 | glycan array binding signal (z-score) (Fuc(a1-2)[Gal(a1-3)]Gal): -0.199 | glycan array binding signal (z-score) [8]: -0.174 | glycan array binding signal (z-score) [9]: -0.2 | glycan array binding signal (z-score) [10]: -0.149 | glycan array binding signal (z-score) [11]: -0.173 | glycan array binding signal (z-score) [12]: -0.167 | glycan array binding signal (z-score) [13]: -0.244 | glycan array binding signal (z-score) [14]: -0.213 | glycan array binding signal (z-score) [15]: -0.176 | glycan array binding signal (z-score) [16]: -0.205 | glycan array binding signal (z-score) [17]: -0.199 | glycan array binding signal (z-score) [18]: -0.194 | glycan array binding signal (z-score) [19]: -0.143 | glycan array binding signal (z-score) [20]: -0.148 | glycan array binding signal (z-score) [21]: -0.21 | glycan array binding signal (z-score) [22]: -0.07 | glycan array binding signal (z-score) [23]: -0.09 | glycan array binding signal (z-score) [24]: -0.022 | glycan array binding signal (z-score) [25]: 5.51 | glycan array binding signal (z-score) [26]: 5.58 | glycan array binding signal (z-score) [27]: -0.22 | glycan array binding signal (z-score) [28]: -0.245 | glycan array binding signal (z-score) [29]: -0.224 | glycan array binding signal (z-score) [30]: -0.188 | glycan array binding signal (z-score) [31]: -0.158 | glycan array binding signal (z-score) [32]: -0.21 | glycan array binding signal (z-score) [33]: 0.107 | glycan array binding signal (z-score) [34]: -0.233 | glycan array binding signal (z-score) [35]: -0.165 | glycan array binding signal (z-score) [36]: -0.201 | glycan array binding signal (z-score) [37]: -0.207 | glycan array binding signal (z-score) [38]: -0.197 | glycan array binding signal (z-score) [39]: -0.013 | glycan array binding signal (z-score) [40]: -0.19 | glycan array binding signal (z-score) [41]: 0.04 | glycan array binding signal (z-score) [42]: -0.117
